For 167 variants, self-cleavage results are on record in the RNAGym collection of RNA variant scans (doi:10.7554/elife.90254).

First the molecules themselves.
B1: OR4K15 (parent)
chain: GUUAACGGUCAUAGGCCAUGGAAACUAGGAGCACCAUUUCGCUGCCAGUGAAGAAAUGAACAAAGAAAAUCUGGGCCAGGCAGGCAUCAAAAGAAAUAGUCUUGCGCUCAACCAGAAAGUCUGUAAUCAUUUUAAGGGUA

Read counts are not given, so values of variants with three or more changes are uncertain.

In this series the parent is B1. The series is described as follows: self-cleavage, relative activity (ratio to wild type); higher = more cleavage; in vitro, sequencing; the parent is a self-cleaving ribozyme.
In the case of A22G A51G A86G A91G G115A G136A, the self-cleavage stood at 0.04.
Next, A22G A67G U124C: 0.65; A22G A30G U72C U120C: 0.17; U19C U38C A86G: 0.98.
As for A22G A33G U139C, the figure is 0.92; as for A22G A86G A96G, 0.87; as for A22G A33U A47G A66G G83C, 0.34.
As for A22G A63G A135G A140U, the figure is 2.08; as for U19C A64G A67G A82G U87C, 0.23; as for A22G A60G G119U, 1.69.
As for G20A A24U U132C, the self-cleavage came to 1.43.
Turning to G20C U49C C61U, the self-cleavage is 1.69.
For the variant A22G A82U A126G, the self-cleavage was 0.13.
Next, A22G C85U A126G: 0.14; A22G A55G A116G U120C A126G: 0.22; U19C A60G A82G G99A A114G: 0.
Regarding A22G C46U U57C A82G A116G, the self-cleavage came to 0.19.
As for U19C A52G U131C, the figure is 0.95.
Next, A22G A54G A134G: 1.55; A22G A52G A67U U100C U130C: 2.43; A22G A78U A116G: 0.29.
As to U19C G41U A114G A129C, the self-cleavage was found to be 0.07.
Regarding A22G A82G U97C, the self-cleavage is 0.74.
For U19C G41A A60G A110G, the self-cleavage was 0.33.
As for A22G A33U A91G, the figure is 0.39.
As to G21U A27G C77U, the self-cleavage came out at 1.35.
In the case of U19C A51U A117G, the self-cleavage turned out to be 1.35.
Next, G20A A54G A55G G80A: 0.16; U19C A60G A114U: 0.05.
Regarding A22G A23G A60G A111G, the self-cleavage was 0.44.
Next, G20A A59G A90G U100C: 1.94; G21U A47G A64G A66U A95G G99A A118G: 0.21; A22G A51G A54G A96G G115U: 0.24.
As to A22G A52G U102C, the self-cleavage is 1.65.
For U19C U57A A92G, the self-cleavage is 1.09.
Next, U19G U49C A69G U87A A111G U122C A135U: 0; U19C U26C A114G: 0.21.
A22G A94G A98U A111G U132C: the self-cleavage is 0.01.
Take U19C A62G C105U A118G: the self-cleavage came out at 0.04.
For the variant A22G A23G U39C G75A, the self-cleavage came out at 0.16.
On to U19C U87C U127C, for which the self-cleavage is 0.54.
Next, A22G A30G G44A A59G: 1.74.
Next, U19C A63U A82G A111G: 0; G21A A22U U38C A52G A111G: 0.01; G21A U38C U49C A59G: 1.25.
Next, U19C C40A U103C: 0.86.
Regarding G20A A68G A94U U124A U130C, the self-cleavage stood at 0.73.
As for U19C A33U U49C U102C, the figure is 1.88; as for A22G C61G A95G U130C, 0.46.
Consider A22G A30U U39C, for which the self-cleavage is 0.88.
As for U19C A52G A63U G79A A95U, the self-cleavage amounted to 0.18.
Regarding A22G C77A A92G A134G, the self-cleavage came out at 0.44.
In the case of A22G A51G A96G, the self-cleavage stood at 1.73.
As for U19C U37C A78G, the figure is 0.27.
Next, A22G G58A A63G: 1.23.
As for A22C C40A A54G A110G, the self-cleavage is 0.24.
As for A22G A23G A54U A86G U108C A126G, the self-cleavage came to 0.
U19C U37C U120C: the self-cleavage was determined as 0.88.
Next, A22G C46U A54C A82C A96G A118G: 0.11; G20A U39C U127A: 2.51.
Consider U19C A86G G106U, for which the self-cleavage turned out to be 0.04.
On to A22G A90G A94G, for which the self-cleavage came out at 1.3.
Next, U19C A111G U131C U132C: 0.01; A22G A52U G119A: 1.95; A22G A27G A47U A110U U133C: 1.1.
On to U19C C109U A116G U120C, for which the self-cleavage worked out at 0.07.
As for U19C A67G U102C, the figure is 1.7; as for A22G A24U A95G, 1.51; as for U19C U37C A82U, 0.27.
As for G21A A62G A92G C105U, the self-cleavage was found to be 0.05.
Turning to A22G A111G U120C, the self-cleavage came to 0.06.
As for U19C A90G A126C, the self-cleavage was determined as 1.47.
For the variant U19C U49C A69U, the self-cleavage was 1.38.
As for A22G A30G U37G U49C U100C U102A, the figure is 1.33.
As to A22G U38C A56G A78U, the self-cleavage came out at 0.12.
Next, A22G A62U U70C: 1.2; U19C A89U A91G A117U U130C: 0.49; G21A A62G A92G A95U A110G U120C U122C: 0.06.
For A22G U37C A89G, the self-cleavage came out at 1.45.
As for A22G A82U A91U U103C U124C, the figure is 0.02; as for U19G A55U A64G, 1.56; as for A22G A27G A54G U87A U131C, 0.75.
Consider G20A A51G A82G A92G C105U, for which the self-cleavage came out at 0.05.
Next, A22G A64G A68G: 1.26; A22G A116G A129U: 0.25; A22G A24G A66G: 1.13.
Next, A22G A91G A116G A117G: 0.18; U19C A52U U97C U120C: 0.72; G20A A95G U127C: 1.58.
For U19C A110G U120C, the self-cleavage came to 0.04.
Regarding U19C A92G A118G, the self-cleavage came to 0.95.
As for U19G U100C A111G, the figure is 0.07.
Next, U19C G75C A129G: 0.06.
As for A22G A33G U43C, the figure is 0.87; as for A22G A30G G83A G99A A111G, 0.02; as for A22G A33G G83A, 1.4.
As for A22G A55G A66G A96G, the self-cleavage came to 1.09.
As for A22G U38C A90G A98G A126C, the figure is 0.11; as for A22G A24G A51C U57C U72A A116G, 0.02; as for U19C U38C A51U A96G U97C A129U, 0.14.
As for A22G A59G U72C A91G A114G A118G, the figure is 1.19; as for A22G A47G A89U A110G, 0.16; as for U19C U37C U131C, 1.64.
Next, U19C A78U A82G U108C U130C: 0.
With U19C U57C A92G, the self-cleavage is 0.33.
For A22G A33G U37C A51U A129G, the self-cleavage is 1.58.
Next, A22G A66G A91G A94G U131C: 0.79.
As to G21A U49C A82U A95U, the self-cleavage came to 0.09.
A22G A54U A60G A69C A96G A118G: the self-cleavage was 0.04.
As for U19C A63G A95G, the figure is 1.02; as for U19C A52G A94G U102C, 1.74; as for U19C U122C U131A, 0.68.
Next, A22G A64G A94G: 1.89.
As for A22C A23G A30G, the figure is 1.35.
In the case of A22G A47G A63G, the self-cleavage worked out at 1.52.
As to A22G A60G A78U G80A A117G, the self-cleavage amounted to 0.12.
As for U19G U38G A52G, the figure is 0.65; as for U19C A54G A110G, 0.14.
As for A22G A30U A116G A126G, the figure is 0.37; as for A22G A52U A67U A140G, 1.46; as for U19C U39G A66G U87C, 0.54.
Next, U19C U26C A69G A91C: 1.43; G20U G53A A62G A69U U127C: 1.84; A22G A51U A52G U87C: 1.82.
Consider A22G A24G A90G U127A, for which the self-cleavage worked out at 0.29.
Next, G20A U39C A54G A117U: 1.06; U19C U38C A55G A67G: 1.09; A22G G28A A68G A82G U108C: 0.03.
A22G A64G A117G A126U: the self-cleavage was found to be 1.11.
As for A22G C25U A33G, the figure is 0.9.
Next, A22G C25U A33U: 1.48; A22G A47G U127A: 1.78; A22G A30G A96G U103C: 0.14.
Next, U19C U108C A116U: 0.01.
A22G A52G A118U: the self-cleavage came to 0.58.
Consider A22G A51G A63U A118G, for which the self-cleavage was 0.19.
Take A22G A62G A111G A135G: the self-cleavage was 0.01.
On to U19C A56G A86G U131C A140U, for which the self-cleavage is 0.74.
As for G21U G80A A94G U102C, the figure is 0.31; as for A22G A51U U100C, 2.11.
On to U19C A56G U139C, for which the self-cleavage turned out to be 1.47.
Next, U19C A68G U108C: 0.01.
Next, A22G A116G U124C: 0.23.
As for A22G A60G A67G, the self-cleavage was found to be 0.9.
Next, U19G A118G A140G: 0.59; A22G A54G A78G: 0.21; U19C A110G U127A: 0.03.
As for A22G A82G U108A A111U, the figure is 0; as for A22G A56G A86G U103A, 0.96; as for U19C A36G G104A U122A A134G, 0.01.
As for A22G A62G A114G, the figure is 0.57; as for G20A A52G U102C, 2.53; as for A22G A56G A114U, 0.04.
As for A22G A78U U130C U133C, the self-cleavage worked out at 0.26.
As for U19C U72C A96G, the figure is 0.02.
As for A22G A56G A63U A68G, the figure is 1.78.
For the variant A22G A27U A64G A118G, the self-cleavage worked out at 1.16.
Consider A22G A24G U38C U57A A59G A69G A86G C105G, for which the self-cleavage was determined as 0.08.
Next, U19C U87C U108C A110G: 0.02; A22G G44A A54G A69G: 1.92.
Next, A22G A54G A90G: 0.75; U19C G20U A52G A62U: 0.45; A22G A23G A63G A89U A91G G104A G123A: 0.02.
As for A22G A60G A68C, the figure is 0.29.
For A22G U38C A66G U124C, the self-cleavage came to 0.62.
In the case of A22G U38C A117U U132C, the self-cleavage stood at 0.79.
As for A22G A63G A89G, the figure is 0.71.
